# Reference: the supplement of paper PMC3334620
# The full ranking holds about 33,000 sequences; the median of “E-score (-0.5 to 0.5)” is about -0.035, and the highest 2% start at about 0.34. Some of the results follow.
# Target: T1, Mot3 (UniProt P54785)
# T1 sequence: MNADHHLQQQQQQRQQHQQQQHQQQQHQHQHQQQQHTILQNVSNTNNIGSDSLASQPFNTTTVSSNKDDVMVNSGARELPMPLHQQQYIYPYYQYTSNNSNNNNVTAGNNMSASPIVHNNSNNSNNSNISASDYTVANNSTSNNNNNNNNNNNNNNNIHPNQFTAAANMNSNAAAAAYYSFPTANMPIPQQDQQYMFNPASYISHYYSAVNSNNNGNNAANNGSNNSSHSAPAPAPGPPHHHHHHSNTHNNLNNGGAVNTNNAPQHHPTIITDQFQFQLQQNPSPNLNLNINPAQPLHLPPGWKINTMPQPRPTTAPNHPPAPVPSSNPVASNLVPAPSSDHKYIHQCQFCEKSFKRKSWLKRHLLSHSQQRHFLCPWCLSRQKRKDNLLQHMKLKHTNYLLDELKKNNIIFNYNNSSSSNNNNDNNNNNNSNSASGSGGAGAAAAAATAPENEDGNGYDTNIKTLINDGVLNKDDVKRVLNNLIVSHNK
# Test: PBM E-score (8-mer binding enrichment) (E-score (-0.5 to 0.5)); higher = stronger / more preferred TF binding; most listed sequences are background and not binding sites
# Conditions: protein concentration: 200 nM; construct: GST-full length
# Procedure, shortened: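 Universal all-10-mer Agilent arrays, double-stranded by primer extension on fresh or once-stripped slides, were probed with about 100-200 nM GST-tagged yeast transcription factors made by PURExpress. Fluorescent anti-GST detected bound protein, and masliner normalised the scans. E-scores from the Universal PBM Analysis Suite were given to each ungapped eight-base word pooled with its reverse complement.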
row,Sequence,PBM E-score
1,CCCGTCAC,-0.265
2,ACGCCAAA,-0.0573
3,CAAAGCTA,0.0327
4,AGCCGTGC,0.0141
5,ACTTAATA,0.242
6,CCGCGAAA,-0.183
7,GGATTGAC,-0.0501
8,CGGCACAG,-0.274
9,GAGATTTA,0.00511
10,AACACTAC,0.135
11,ATGCGGAA,-0.0583
12,CCACACGG,-0.0702
13,GTCGTACA,0.109
14,AGAATCGC,-0.304
15,CACTATGC,-0.0288
16,CAAACCAA,0.0865
17,ACACGCGG,0.252
18,GCTACACC,-0.0458
19,ATATAGCA,-0.149
20,GCCTGGAA,0.187
21,ACATGTAG,0.388
22,GTTACCCA,-0.138
23,ATATGCAC,0.019
24,AGGTGGTC,-0.232
25,GATCGGAC,-0.158

row,Sequence,PBM E-score
1,ACCTGAGG,-0.121
2,GCGATAGA,-0.11
3,AAGATTAC,0.212
4,ATCGTTGG,-0.00489
5,AAGTATCA,-0.0707
6,ATGATGCA,0.0819
7,ATTGCATA,0.0155
8,ACACAAAT,0.184
9,AAGCATGG,-0.0628
10,AGCTAACC,-0.152
11,ACTGATAT,-0.153
12,AACACGAG,0.288
13,CCGCAGAG,-0.395
14,CGTTCAGA,-0.143
15,AGTACAAA,0.183
16,CGGCGATA,-0.115
17,AAACTGCC,-0.144
18,CGCTACCC,-0.305
19,CAACACTG,0.0192
20,CGATAACA,0.175
21,AAGAATGT,0.143
22,CGACCCGA,-0.325
23,CCAGGCGG,-0.0321
24,AGACGCGC,0.0991
25,GGTCCCAC,-0.266

row,Sequence,PBM E-score
1,GGGTGGCA,-0.239
2,AGGTCGAA,0.00993
3,CTGCAGGA,0.291
4,CATACACG,0.316
5,AATAGCGT,0.0246
6,TCCGAGAA,-0.173
7,GAATGACA,0.188
8,GTAAGCGA,0.0864
9,CCATAAAC,-0.0801
10,CAGGTAAG,0.271
11,CGAGCTCA,-0.249
12,AGGCGGTA,-0.00409
13,ATTACAAG,0.388
14,CACGGGGA,0.00419
15,ACATTATA,0.16
16,CTCTTCCA,-0.0461
17,GCTAATAC,0.102
18,CCGTATCA,0.0442
19,ATGAATCA,0.0766
20,GACAAGTC,-0.0108
21,TTGATAAA,0.157
22,ATAACGGG,-0.0475
23,GGTTACGA,-0.133
24,ATGGGGTG,-0.101
25,CAGCGAAA,-0.0229

row,Sequence,PBM E-score
1,CACTTTAC,0.174
2,ATTAAGGC,0.378
3,CGTCTAAC,-0.0212
4,CTAATCAA,0.0869
5,AGGACGCC,0.133
6,CCCTTTCA,0.0272
7,GTGGCCTA,0.0303
8,AAACAAAG,0.243
9,ATGGATAC,0.183
10,AAGTAAAC,0.0956
11,GTCGCCAC,-0.264
12,AGGCACCG,0.491
13,GAGAGGCA,0.239
14,CCACACCA,-0.118
15,CGATAGTC,-0.0497
16,TCATTTAA,0.00818
17,CGTGGCAA,-0.0326
18,GTACCGAC,-0.0363
19,AGAACTCT,-0.145
20,TCTGGTAA,-0.0343
21,CTGTTTAA,0.119
22,ATACCGGC,-0.0877
23,AGTACGGG,-0.294
24,TAAGCTAA,-0.0354
25,CCTTCGTA,0.131

row,Sequence,PBM E-score
1,CTTTCGGC,-0.191
2,CACATCTG,-0.0964
3,AATCGCAA,-0.126
4,CGACTTAC,-0.127
5,GGATTGGA,-0.0979
6,ACAGTAAA,0.119
7,AAGGGCAG,-0.104
8,GAGTGACC,-0.334
9,GGCAATTA,0.247
10,CCGTTGAA,-0.155
11,CAGAATCC,-0.127
12,ACTAAACC,0.139
13,ACGAGTGC,0.106
14,ATCGGCTA,-0.0778
15,TATAACGA,0.115
16,CCCACCTA,-0.118
17,CATATAGC,-0.0609
18,GCGTAACC,0.135
19,CGCCACCA,-0.198
20,ATGGTTAC,0.139
21,GAAGAAAA,-0.0111
22,GCCACCGC,-0.339
23,ATCGGTTA,-0.00545
24,CCCTGGCC,-0.264
25,CTTTATTC,-0.0507

row,Sequence,PBM E-score
1,GTTTATAA,0.15
2,CGACCTAA,-0.0677
3,CGAGTCTC,-0.298
4,CACCCCTC,-0.0821
5,AGAAGAGG,-0.173
6,ATAACTAC,0.179
7,ACCCGTGC,-0.0819
8,CCTGCAGG,0.413
9,CAAGATTG,0.123
10,CATAGTCA,0.0214
11,ATGCCTGG,0.127
12,ACCTAAAC,0.169
13,CCCATACA,0.164
14,ATTGCAGC,-0.178
15,ACAGCGGG,-0.173
16,ACTTGCAT,0.0134
17,GCTACGTA,0.195
18,AGATCGCC,-0.138
19,CAGAACGA,-0.058
20,CATAGGAC,-0.0353
21,CGGCTGCA,-0.252
22,GTTCTACA,0.302
23,GGGGAAAA,-0.211
24,AGAAACCA,-0.107
25,ATCCTAGC,-0.0862

row,Sequence,PBM E-score
1,AGCTATTA,-0.00789
2,TCTGACAA,0.122
3,CCGTTCCA,-0.133
4,CGCAACTA,-0.00082
5,CGTTAACG,0.1
6,CAAGAACC,0.0697
7,TGCCGTAA,-0.0574
8,GAAGGCGC,0.362
9,ATAATTCA,0.15
10,GAGCCTAA,0.278
11,GACTCGTA,-0.0701
12,ACACATAG,0.139
13,AGAGTGTG,0.154
14,ACAGTTAG,0.0261
15,CAAAGCGG,-0.0413
16,AGCGTCAT,-0.0296
17,CACTATGG,-0.048
18,CTTTACGC,0.33
19,CAATCCAG,-0.15
20,CAAATCTG,-0.0901
21,CTCCCCGA,-0.153
22,GATTAAGC,-0.183
